Assay results published in article PMC11161652, “ASXLs binding to the PHD2/3 fingers of MLL4 provides a mechanism for the recruitment of BAP1 to active enhancers” (Nature Communications, 2024).
Read-outs that look alike come from different tables or passages of the source. No constants are given. Whether binding was seen depends on the method and setting. For some of these results: In cells and extracts the contact can be indirect. Some results given as binding are weak or reduced against the parent protein; the word gives no strength. For some of these results: Sequences can lack the tags named with a protein. Values belong to the molecule of their own block, whether it stands above or below them.

Amino acid sequences for entries named in this document (tags omitted). A change or cut given only in a name is not applied to a line headed by its entry. Chains listed by the source or under a name are the forms on record and can include a tag or linker. Residues count along the entry.
GST-MLL4_(PHD2/3), wild type (O14686, residues 227-324): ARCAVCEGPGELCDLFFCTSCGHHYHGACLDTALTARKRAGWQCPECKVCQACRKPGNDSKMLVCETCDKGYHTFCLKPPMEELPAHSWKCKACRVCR
MLL4_(PHD2/3) D257K/D285K (O14686, form named): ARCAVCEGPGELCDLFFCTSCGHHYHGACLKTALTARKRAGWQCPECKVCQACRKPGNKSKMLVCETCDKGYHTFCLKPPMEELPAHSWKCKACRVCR
MLL4_(PHD2/3) K274E (O14686, form named): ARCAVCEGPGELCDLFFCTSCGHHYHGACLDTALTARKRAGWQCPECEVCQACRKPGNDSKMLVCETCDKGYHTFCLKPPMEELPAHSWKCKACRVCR
MLL4_(PHD2/3) V290K (O14686, form named): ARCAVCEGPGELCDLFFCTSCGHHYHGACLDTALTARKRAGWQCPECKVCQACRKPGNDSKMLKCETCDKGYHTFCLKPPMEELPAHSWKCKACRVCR

Tests used:
[1] = target: PHD2 and PHD3 fingers of human MLL4 (aa 227-324) (human) (UniProt O14686); experiment: NMR titration; 1H,15N HSQC of 0.1 mM uniformly 15N-labelled WT or mutated MLL4 PHD2/3, MLL3 PHD2/3 or MLL3 PHD4; peptides or MLL3 PHD2/3 added stepwise; 298 K; 20 mM Tris pH 6.8, 150 mM NaCl, 3 mM DTT, 7% D2O; both purified
[2] = target: GST-MLL4_(PHD2/3), wild type (human) (UniProt O14686); experiment: pull-down; about 9 μg GST-MLL3 PHD2/3 or GST-MLL4 PHD2/3 (WT or mutants) on GSH resin, incubated 3 h at 4 °C with lysate of HEK293FT cells expressing Myc-ASXL1, Myc-ASXL2 or Myc-ASXL2ΔMBH; 5 washes; western blot; only the target purified
[3] = target: T1, GST-MLL3_(PHD2/3) D372K/D400K (human) (UniProt Q8NEZ4); experiment: as above
T1 sequence: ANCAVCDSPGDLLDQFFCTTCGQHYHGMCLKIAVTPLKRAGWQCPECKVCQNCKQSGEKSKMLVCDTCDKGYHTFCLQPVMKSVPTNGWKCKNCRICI

[4] = target: T2, GST-MLL3_(PHD2/3), wild type (human) (UniProt Q8NEZ4); experiment: as above
T2 sequence: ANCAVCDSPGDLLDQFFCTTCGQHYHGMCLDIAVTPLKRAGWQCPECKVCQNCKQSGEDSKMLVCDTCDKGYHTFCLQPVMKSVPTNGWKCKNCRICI

[5] = target: T3, PHD4 finger of MLL3 (aa 464-520) (human) (UniProt Q8NEZ4); experiment: NMR titration; 1H,15N HSQC of 0.1 mM uniformly 15N-labelled WT or mutated MLL4 PHD2/3, MLL3 PHD2/3 or MLL3 PHD4; peptides or MLL3 PHD2/3 added stepwise; 298 K; 20 mM Tris pH 6.8, 150 mM NaCl, 3 mM DTT, 7% D2O; both purified
T3 sequence: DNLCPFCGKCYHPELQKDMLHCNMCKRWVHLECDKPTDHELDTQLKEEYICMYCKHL

[6] = target: MLL4_(PHD2/3) D257K/D285K (human) (UniProt O14686); experiment: as above
[7] = target: MLL4_(PHD2/3) K274E (human) (UniProt O14686); experiment: as above
[8] = target: T4, MLL3_(PHD2/3) D372K/D400K (human) (UniProt Q8NEZ4); experiment: as above
T4 sequence: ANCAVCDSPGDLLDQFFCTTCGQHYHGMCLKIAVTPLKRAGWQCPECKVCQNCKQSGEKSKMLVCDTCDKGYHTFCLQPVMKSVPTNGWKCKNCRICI

[9] = target: MLL4_(PHD2/3) V290K (human) (UniProt O14686); experiment: as above
[10] = target: T3, PHD4 finger of MLL3 (aa 464-520) (human); experiment: as above; remark: listed apart in the source

binding [1]: no binding
Molecule: ASXL2 peptide (aa 650-670) K661E (from UniProt Q76L83 650-670)

binding [2]: binds
binding [3]: no binding
binding [4]: binds
Molecule: Myc-ASXL2, full length (from UniProt Q76L83 1-1435)

binding [5]: no binding
binding [6]: no binding
binding [7]: no binding
binding [8]: no binding
binding [9]: no binding
B1: ASXL2 peptide (residues 650-670 of ASXL2) (peptide, UniProt Q76L83 650-670, looked up)
peptide: NRTGARTLADIKAKAQLVKAQ
notes: also called ASXL2 (aa 650-670); MBH of ASXL2; source: synthetic peptide (SynPeptide)

binding [10]: no binding
B2: PHD2 and PHD3 fingers of human MLL3 (aa 342-439) (domain or fragment, UniProt Q8NEZ4 342-439)
chain: ANCAVCDSPGDLLDQFFCTTCGQHYHGMCLDIAVTPLKRAGWQCPECKVCQNCKQSGEDSKMLVCDTCDKGYHTFCLQPVMKSVPTNGWKCKNCRICI
